# From paper PMC6919601, “Identification of Plasmodium dipeptidyl aminopeptidase allosteric inhibitors by high throughput screening” (PLoS ONE, 2019)
# The campaign covered roughly 110,000 compounds. About 230 (0.21%) showed an effect of 50% or more. The list shows a part of the results.
# Target: DPAP1 (Plasmodium falciparum, UniProt Q8IIJ9)
# Assay: primary screen, percent inhibition; read by cleavage of a fluorogenic dipeptide substrate; higher = more effect of the substance
# Set-up: species or system P. falciparum D10 trophozoite lysates; single well
# 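Further: 30 min substrate incubation versus DMSO and 10 µM JCP410 controls.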
# DPAP1, sequence (Q8IIJ9 whole entry, looked up): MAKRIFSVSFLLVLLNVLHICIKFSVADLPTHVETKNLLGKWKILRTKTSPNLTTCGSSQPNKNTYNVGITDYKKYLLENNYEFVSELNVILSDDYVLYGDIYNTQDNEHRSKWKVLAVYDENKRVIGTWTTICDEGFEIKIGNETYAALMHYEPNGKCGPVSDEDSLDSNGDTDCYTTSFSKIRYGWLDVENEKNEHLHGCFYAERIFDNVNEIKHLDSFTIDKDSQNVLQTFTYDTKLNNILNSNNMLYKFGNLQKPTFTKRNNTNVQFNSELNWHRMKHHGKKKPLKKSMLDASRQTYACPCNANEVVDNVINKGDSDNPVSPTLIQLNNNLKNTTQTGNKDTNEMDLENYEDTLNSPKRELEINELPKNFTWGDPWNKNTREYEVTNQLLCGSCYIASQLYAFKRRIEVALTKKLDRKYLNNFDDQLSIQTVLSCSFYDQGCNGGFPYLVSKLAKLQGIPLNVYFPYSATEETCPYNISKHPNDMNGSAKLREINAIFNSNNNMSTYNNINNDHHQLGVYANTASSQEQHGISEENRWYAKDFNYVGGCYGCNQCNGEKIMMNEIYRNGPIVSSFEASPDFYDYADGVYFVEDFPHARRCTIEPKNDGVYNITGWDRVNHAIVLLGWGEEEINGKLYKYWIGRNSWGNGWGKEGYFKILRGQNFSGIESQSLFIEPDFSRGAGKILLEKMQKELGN
row,Structure (SMILES),% Inhibition @ 10 uM
1,Oc1cc(-c2ccc(Cl)cc2)cc(-c2ccccc2)n1,0.51%
2,COc1ccc(/C=N/n2cnnc2S)cc1,33.7%
3,O=C(O)/C=C/C(=O)Nc1ccc2nn(-c3ccccc3)nc2c1,-3.92%
4,CCOc1ccc2c(c1)CN(Cc1ccc(Cl)cc1)CO2,1.62%
5,CN1C2=NCCCN2c2ccccc21,-1.54%
6,CC1CCCN(Cc2nc3c(c(=O)n(C)c(=O)n3C)n2CCc2ccccc2)C1 (stereo not drawn),-3.23%
7,COc1ccc(C(=O)N2CCN(c3ccc(Cl)c(Cl)c3)CC2)cc1OC,-3.34%
8,CCOc1ccc(C2C3=C(CCCC3=O)N(CC(=O)O)C3=C2C(=O)CCC3)cc1,0.389%
9,N#CC1=C(N)Oc2c(cc(Cl)c3ccccc23)C1c1ccc(F)cc1 (stereo not drawn),3.03%
10,N#CC1=C(N)Oc2c(c(=O)oc3ccccc23)C1c1ccc([N+](=O)[O-])cc1 (stereo not drawn),-5.33%
11,CCSc1c(S)cnn(-c2ccccc2)c1=O,1.7%
12,Cc1cccc(NC2=C(Cl)C(=O)N(c3ccccc3)C2=O)c1,2.68%
13,O=C1NC(=O)N(Cc2ccccc2)C(=O)/C1=C\c1ccc(SC2CCCCC2)o1,-1.28%
14,COc1ccc(NC(=O)c2c(NC(=O)CCC(=O)O)sc3c2CCC(C)C3)cc1 (stereo not drawn),11.2%
15,Cc1nc(N2CCCC2)c2c3c(sc2n1)CC(C)CC3 (stereo not drawn),-11.9%
16,COc1ccccc1Oc1ncnc2scc(-c3ccc(F)cc3)c12,-3.4%
17,Cc1ccc(S(=O)(=O)Nc2cccc(F)c2)cc1C(N)=O,-9.7%
18,CSc1ccc(CN(C)CCc2ccccn2)cc1,5.56%
19,COc1ccc(-c2cc(C(F)(F)F)n3nc(C(=O)O)cc3n2)cc1,-4.03%
20,O=C(CCCCCN1C(=O)c2ccccc2C1=O)Nc1ccc2c(c1)OCO2,-5.51%
21,CCN(c1nc(C)cc(OC)n1)S(=O)(=O)c1ccccc1,6.65%
22,Cc1nn(CC(=O)NC2CCCc3ccccc32)c(=O)c2c1sc1ccccc12 (stereo not drawn),1.76%
23,CCC(C)(C#CCN1CCOCC1)OC(C)=O (stereo not drawn),-0.693%
24,N#Cc1c2n(c3c(-c4ccccc4)ncnc13)CCC2,2.4%
25,COc1ccc(NC2CC(C)Nc3cc(OC)c(OC)cc32)cc1OC (stereo not drawn),3.53%
26,CNc1nc(NC(C)(C)C)nc(NC(C)(C)C)n1,4.22%
27,CCCCC1=NN(C(=O)c2ccc(O)cc2)C(O)(C(F)(F)F)C1 (stereo not drawn),2.36%
28,CSc1nc2ccccc2n1-c1ccccc1,-1.55%
29,CC(C)CC(=O)Nc1cccc(-c2nc3cc(Cl)ccc3o2)c1,-2.97%
30,CCN1CCC(NC2CCN(Cc3ccccc3)CC2)CC1,1.57%
